Reference: a collection of fitness landscapes (doi:10.1038/s41467-024-54723-y)
The full ranking holds about 18,000 sequences; the median of “TetR repression strength (sort-seq, GFP reporter)” is about 0.23, and the highest 2% start at about 0.68. This is one part of the list.

target: TetR (class B, Tn10) (UniProt P04483); test: TetR repression strength (sort-seq, GFP reporter) (relative to tetO2 = 1); higher = stronger repression; details: E. coli
Outline: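 In LB with 50 µg/mL chloramphenicol, E. coli SIG10-MAX holding a low-copy library with eight randomized operator positions between a constitutive promoter and sfGFP, plus constitutive TetR, grew for 5 h at 37 °C. FACS then sorted 10^6 cells into 13 fluorescence bins for Illumina sequencing of each bin. Repression strength equals the top bin index plus one less the read-weighted mean bin, normalized to the unaltered operator. Values from three independent transformations were averaged when reads were ≥30 in every replicate and the CV was ≤0.5.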

Chain of UniProt P04483 (P04483 whole entry): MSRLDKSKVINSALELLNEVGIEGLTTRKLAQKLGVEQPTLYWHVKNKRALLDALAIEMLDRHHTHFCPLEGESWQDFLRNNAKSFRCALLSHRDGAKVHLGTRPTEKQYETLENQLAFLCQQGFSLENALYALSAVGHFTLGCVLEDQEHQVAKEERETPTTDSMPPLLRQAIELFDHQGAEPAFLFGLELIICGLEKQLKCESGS

Sequence | TetR repression strength
TCCCTACGAGTTTACGAGA | 0.0249
TCCCCACTAGTCTTTGAGA | 0.313
TCCCCACCAGTGCGGGAGA | 0.251
TCCCGGACAGTCTCAGAGA | 0.177
TCCCATTAAGTTCACGAGA | 0.242
TCCCCTATAGTACTGGAGA | 0.25
TCCCGGTCAGTTGACGAGA | 0.173
TCCCGCTAAGTTATGGAGA | 0.266
TCCCCACTAGTTGAGGAGA | 0.252
TCCCGCCGAGTGGTGGAGA | 0.0812
TCCCCAAAAGTTAGAGAGA | 0.113
TCCCAGCAAGTGGAGGAGA | 0.194
TCCCGTTTAGTTGTGGAGA | 0.0565
TCCCCTTAAGTGTGAGAGA | 0.179
TCCCGGCGAGTGTCGGAGA | 0.211
TCCCTCGGAGTATGAGAGA | 0.305
TCCCCTGTAGTTCAGGAGA | 0.293
TCCCGGAGAGTTAAGGAGA | 0.254
TCCCATGCAGTAAGTGAGA | 0.178
TCCCTTTGAGTGTAGGAGA | 0.251
TCCCGCCTAGTCGAAGAGA | 0.29
TCCCGAAGAGTGTTGGAGA | 0.268
TCCCGTGCAGTCTGTGAGA | 0.0631
TCCCGGTTAGTGGCGGAGA | 0.337
TCCCTTAGAGTAAGAGAGA | 0.0395
TCCCAAATAGTGGTGGAGA | 0.335

Sequence | TetR repression strength
TCCCCGGAAGTAGTGGAGA | 0.0942
TCCCCGACAGTGAAAGAGA | 0.348
TCCCACTAAGTAGTGGAGA | 0.237
TCCCATATAGTTGATGAGA | 0.148
TCCCTTTGAGTGCTTGAGA | 0.114
TCCCATGCAGTAGTTGAGA | 0.207
TCCCGCTGAGTTCCCGAGA | 0.217
TCCCAGGGAGTCGATGAGA | 0.103
TCCCCATTAGTTCGAGAGA | 0.287
TCCCCCAAAGTAGTTGAGA | 0.29
TCCCAATGAGTACCTGAGA | 0.18
TCCCACGCAGTCGTGGAGA | 0.349
TCCCAGCCAGTTCCTGAGA | 0.225
TCCCTAGTAGTGTACGAGA | 0.0432
TCCCACATAGTGTCGGAGA | 0.0437
TCCCGCACAGTGATTGAGA | 0.42
TCCCCGATAGTGATTGAGA | 0.47
TCCCCGGCAGTACAGGAGA | 0.235
TCCCACACAGTCGGGGAGA | 0.191
TCCCGCTTAGTAAGGGAGA | 0.271
TCCCACATAGTGCAAGAGA | 0.368
TCCCGAGGAGTGTTGGAGA | 0.271
TCCCGCGCAGTCTTAGAGA | 0.28
TCCCCGTCAGTTTGCGAGA | 0.741
TCCCCCGCAGTGTGGGAGA | 0.15
TCCCGATCAGTGAAAGAGA | 0.657

Sequence | TetR repression strength
TCCCGCAAAGTTGTCGAGA | 0.48
TCCCGTGGAGTTCGAGAGA | 0.298
TCCCTGAAAGTGACGGAGA | 0.506
TCCCTTAAAGTGAGGGAGA | 0.355
TCCCCTGCAGTTGAAGAGA | 0.214
TCCCGCGAAGTGGCGGAGA | 0.168
TCCCGGCGAGTTGGCGAGA | 0.195
TCCCTGTAAGTATGTGAGA | 0.214
TCCCGATGAGTATTCGAGA | 0.177
TCCCTTTCAGTAATTGAGA | 0.544
TCCCCCGGAGTAAGAGAGA | 0.0553
TCCCCATTAGTCTATGAGA | 0.187
TCCCGTCAAGTTATAGAGA | 0.233
TCCCAATCAGTGTCTGAGA | 0.513
TCCCTGTGAGTCGGGGAGA | 0.28
TCCCGCGGAGTTGGGGAGA | 0.299
TCCCACTGAGTATTCGAGA | 0.224
TCCCATTTAGTCGCGGAGA | 0.755
TCCCCGCGAGTCCTCGAGA | 0.346
TCCCCACCAGTTATGGAGA | 0.321
TCCCGATTAGTGGCTGAGA | 0.269
TCCCGCATAGTAGGTGAGA | 0.317
TCCCAATCAGTTCTAGAGA | 0.396
TCCCGTTCAGTTCACGAGA | 0.159
TCCCGGAGAGTTACTGAGA | 0.419
TCCCGTTAAGTGAAGGAGA | 0.137

Sequence | TetR repression strength
TCCCTGACAGTGTTAGAGA | 0.216
TCCCGAGCAGTGGATGAGA | 0.154
TCCCGGAAAGTGGAGGAGA | 0.175
TCCCTGGGAGTATAAGAGA | 0.161
TCCCCGATAGTACGCGAGA | 0.172
TCCCTATGAGTGTGAGAGA | 0.252
TCCCTTTAAGTCCTTGAGA | 0.207
TCCCGAGGAGTTTCTGAGA | 0.509
TCCCCCGCAGTCTGCGAGA | 0.125
TCCCGTGTAGTAGGAGAGA | 0.17
TCCCTAAGAGTGGGTGAGA | 0.129
TCCCGGAGAGTTCTGGAGA | 0.193
TCCCGAGCAGTAGTAGAGA | 0.378
TCCCCAAGAGTTAGCGAGA | 0.305
TCCCGAGGAGTTAGAGAGA | 0.141
TCCCACGTAGTCTACGAGA | 0.348
TCCCTTATAGTATGGGAGA | 0.0726
TCCCGGGAAGTCAGCGAGA | 0.261
TCCCGCTGAGTGGGGGAGA | 0.484
TCCCTTCAAGTGCGTGAGA | 0.202
TCCCGAGTAGTTGCAGAGA | 0.389
TCCCGCCTAGTGGGCGAGA | 0.131
TCCCACCAAGTGTCAGAGA | 0.326
TCCCTGGGAGTTTGCGAGA | 0.187
